Laboratory results: the supplement of paper PMC11125491
± gives the standard deviation of the averaged measurements. Growth of baker's yeast expressing single-residue variants of Pneumocystis jirovecii dihydrofolate reductase in 8.8 or 44 µM methotrexate (about 75% and 90% inhibition of the wild type). Selection coefficient per generation; 0 = like wild type, above 0 = less sensitive, below 0 = more sensitive or loss of function. No active / inactive call per row; the paper calls resistant above 0.220 (8.8 µM) or 0.243 (44 µM) together with a significance test. At 44 µM about 15% of codons end with one read or none, so the lowest values are floors (replicate rank correlation 0.74; 0.94 at 8.8 µM).

B1: UniProt A0EPZ9; numbered along this chain (parent)
chain: MDWQKSLTLIVALTLSRGIGLKNDLPWKLKSDMMFFSRVTSGLLVTRSTGQMNVVLMGRKTWESLPAHSRPLKNRINVVISRQEVLDLGGGAYHARSLDDALALLSQIYDSTSKIQLNRVFVIGGGELCKAAMEHSRLNRIIATVIHNEVDCDVFFPIDFRSSQSCLPWRKQDHSVLEAWVGSKVPQGKINENGFIYEFEMWIRDI

Variants of: B1
Assay: selection coefficient against synonymous wild-type codons (log2 per generation); higher = faster growth than wild type
Conditions: with Saccharomyces cerevisiae carrying the variant on a plasmid
Experimental: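 Pooled growth of yeast carrying single-residue variants of P. jirovecii dihydrofolate reductase (own DFR1 gene intact), two passages at 30 °C, three cultures, sequenced before and after. Codons with under 15 starting reads are left out; codons of one change are averaged.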

Variant | selection coefficient against synonymous wild-type codons (log2) (methotrexate 8.8 µM) | selection coefficient against synonymous wild-type codons (log2) (methotrexate 44 µM)
L56E | -0.562 ± 0.1 | -0.357 ± 0.052
L56N | -0.577 ± 0.034 | -0.329 ± 0.034
L25I | 0.0443 ± 0.025 | 0.0629 ± 0.11
M34R | -0.0173 ± 0.027 | -0.0477 ± 0.076
M201W | -0.35 ± 0.095 | -0.295 ± 0.069
T49Q | -0.0375 ± 0.032 | 0.0934 ± 0.1
N77Q | -0.256 ± 0.015 | -0.171 ± 0.09
D173K | -0.171 ± 0.063 | -0.208 ± 0.15
D173T | -0.189 ± 0.071 | -0.216 ± 0.18
V45F | -0.112 ± 0.023 | -0.0573 ± 0.058
S69G | -0.0928 ± 0.049 | -0.115 ± 0.085
P157K | -0.195 ± 0.052 | -0.15 ± 0.023
P157C | -0.445 ± 0.19 | -0.371 ± 0.07
P157E | -0.224 ± 0.06 | -0.217 ± 0.21
I146S | 0.352 ± 0.055 | 0.471 ± 0.053
I146K | -0.337 ± 0.06 | -0.168 ± 0.082
I146H | 0.402 ± 0.064 | 0.693 ± 0.057
Q107S | -0.0378 ± 0.037 | -0.0117 ± 0.14
A92C | -0.176 ± 0.06 | -0.199 ± 0.16
T61C | 0.0481 ± 0.034 | -0.0443 ± 0.087
I141H | -0.568 ± 0.025 | -0.0668 ± 0.057
I141K | -0.628 ± 0.11 | -0.168 ± 0.041
D159A | -0.0605 ± 0.047 | -0.142 ± 0.079

Variant | selection coefficient against synonymous wild-type codons (log2) (methotrexate 8.8 µM) | selection coefficient against synonymous wild-type codons (log2) (methotrexate 44 µM)
D159L | -0.0263 ± 0.064 | -0.0148 ± 0.23
D159C | -0.107 ± 0.1 | -0.188 ± 0.058
D100K | -0.339 ± 0.055 | -0.212 ± 0.042
D100C | -0.455 ± 0.033 | -0.286 ± 0.13
L104Q | -0.338 ± 0.11 | -0.253 ± 0.036
S6R | 0.0844 ± 0.083 | 0.0596 ± 0.15
A67G | -0.164 ± 0.045 | -0.107 ± 0.094
R38L | -0.0414 ± 0.096 | 0.007 ± 0.071
R38W | -0.114 ± 0.015 | -0.169 ± 0.12
L167H | -0.0785 ± 0.12 | -0.164 ± 0.068
L167F | -0.0935 ± 0.096 | -0.159 ± 0.078
L167I | 0.103 ± 0.12 | -0.0353 ± 0.14
N148P | 0.0618 ± 0.085 | 0.0938 ± 0.36
E127Q | -0.0106 ± 0.034 | 0.243 ± 0.021
E127S | 0.034 ± 0.055 | 0.0927 ± 0.12
E127G | -0.0981 ± 0.023 | -0.142 ± 0.095
E127I | -0.486 ± 0.033 | -0.347 ± 0.039
V55T | -0.531 ± 0.093 | -0.317 ± 0.087
V55E | -0.565 ± 0.049 | -0.317 ± 0.057
V55M | -0.27 ± 0.093 | -0.272 ± 0.067
V55P | -0.536 ± 0.042 | -0.288 ± 0.029
R47A | 0.0361 ± 0.051 | 0.0311 ± 0.075
G58K | -0.494 ± 0.077 | -0.288 ± 0.03

Variant | selection coefficient against synonymous wild-type codons (log2) (methotrexate 8.8 µM) | selection coefficient against synonymous wild-type codons (log2) (methotrexate 44 µM)
L44T | 0.086 ± 0.022 | 0.109 ± 0.029
S97D | -0.224 ± 0.05 | -0.294 ± 0.12
R204G | -0.272 ± 0.096 | -0.292 ± 0.11
S37A | -0.143 ± 0.039 | -0.1 ± 0.061
A95E | -0.637 ± 0.07 | -0.29 ± 0.042
A95W | -0.834 ± 0.11 | -0.373 ± 0.036
T144A | 0.211 ± 0.021 | 0.46 ± 0.35
L88T | -0.0528 ± 0.046 | -0.0676 ± 0.092
L88S | -0.452 ± 0.051 | -0.324 ± 0.065
L102A | -0.651 ± 0.13 | -0.192 ± 0.15
L29I | 0.00304 ± 0.054 | -0.0881 ± 0.11
L29K | 0.441 ± 0.041 | 0.506 ± 0.074
L29C | 0.0351 ± 0.022 | -0.0128 ± 0.089
H135S | 0.0415 ± 0.041 | 0.0844 ± 0.1
D99P | -0.217 ± 0.062 | -0.167 ± 0.1
T46D | 0.238 ± 0.037 | 0.217 ± 0.069
T46C | -0.059 ± 0.029 | -0.141 ± 0.054
E134S | -0.102 ± 0.037 | -0.0521 ± 0.078
M57K | -0.337 ± 0.1 | -0.124 ± 0.051
V120H | -0.739 ± 0.023 | -0.235 ± 0.063
D87C | -0.346 ± 0.032 | -0.181 ± 0.061
D205M | -0.399 ± 0.026 | -0.256 ± 0.14
D205R | -0.276 ± 0.1 | -0.266 ± 0.088

Variant | selection coefficient against synonymous wild-type codons (log2) (methotrexate 8.8 µM) | selection coefficient against synonymous wild-type codons (log2) (methotrexate 44 µM)
D205P | -0.127 ± 0.12 | -0.143 ± 0.099
G50A | -0.122 ± 0.06 | -0.118 ± 0.095
G50I | -0.0516 ± 0.02 | -0.0297 ± 0.099
Y93F | -0.14 ± 0.021 | -0.146 ± 0.2
N23P | -0.0619 ± 0.046 | -0.113 ± 0.097
Q172F | -0.256 ± 0.28 | -0.0758 ± 0.12
K130E | -0.213 ± 0.041 | -0.122 ± 0.16
H174S | -0.0264 ± 0.06 | -0.115 ± 0.11
H174P | -0.0422 ± 0.047 | -0.098 ± 0.087
K73H | -0.0199 ± 0.064 | -0.109 ± 0.09
K73E | 0.0706 ± 0.036 | 0.0313 ± 0.065
L128D | -0.746 ± 0.076 | -0.355 ± 0.051
L128A | -0.737 ± 0.083 | -0.233 ± 0.093
N53L | -0.286 ± 0.082 | -0.141 ± 0.13
N53I | -0.114 ± 0.023 | 0.0145 ± 0.063
K5S | 0.163 ± 0.12 | 0.178 ± 0.12
K5G | 0.174 ± 0.14 | 0.201 ± 0.13
Q187L | -0.12 ± 0.047 | -0.133 ± 0.13
Q187M | -0.0899 ± 0.077 | -0.178 ± 0.16
T112G | 0.0231 ± 0.018 | 0.0644 ± 0.06
T112Y | -0.335 ± 0.037 | -0.0736 ± 0.096
S41P | 0.05 ± 0.043 | 0.242 ± 0.032
S41W | -0.323 ± 0.066 | -0.244 ± 0.11

Variant | selection coefficient against synonymous wild-type codons (log2) (methotrexate 8.8 µM) | selection coefficient against synonymous wild-type codons (log2) (methotrexate 44 µM)
R59T | -0.143 ± 0.087 | -0.135 ± 0.13
V150T | 0.0994 ± 0.037 | 0.00459 ± 0.089
V150M | -0.00418 ± 0.033 | -0.106 ± 0.076
E178M | -0.348 ± 0.091 | -0.356 ± 0.051
L7D | -0.55 ± 0.14 | -0.344 ± 0.071
L7Y | -0.112 ± 0.1 | -0.121 ± 0.12
E200M | 0.374 ± 0.045 | 0.378 ± 0.019
L138V | 0.0788 ± 0.038 | -0.000229 ± 0.16
G188R | -0.0887 ± 0.068 | -0.158 ± 0.11
G188P | -0.252 ± 0.18 | -0.078 ± 0.071
G188Q | -0.174 ± 0.066 | -0.211 ± 0.057
P26Y | -0.354 ± 0.18 | -0.205 ± 0.12
P26F | -0.585 ± 0.048 | -0.271 ± 0.13
P26Q | 0.0428 ± 0.047 | 0.0399 ± 0.046
I203G | 0.0625 ± 0.039 | 0.0116 ± 0.11
A12K | -0.55 ± 0.1 | -0.26 ± 0.07
H147Y | -0.225 ± 0.2 | -0.214 ± 0.15
H147P | 0.192 ± 0.042 | 0.161 ± 0.11
I123K | -0.839 ± 0.089 | -0.377 ± 0.058
I123Y | -0.559 ± 0.036 | -0.331 ± 0.057
V39Q | 0.0864 ± 0.0076 | 0.25 ± 0.062
V39D | -0.38 ± 0.11 | -0.229 ± 0.091
L72T | 0.0449 ± 0.12 | 0.203 ± 0.1
